Source: publication PMC10163088
Results are given in words; binding and its absence hold for the method and conditions named. In cells and extracts the contact can be indirect. Some results given as binding are weak or reduced against the parent protein; the word gives no strength. Sequences can lack the tags named with a protein.

By UniProt entry, the sequences of proteins in these tests, tags left out.
UniProt P16649: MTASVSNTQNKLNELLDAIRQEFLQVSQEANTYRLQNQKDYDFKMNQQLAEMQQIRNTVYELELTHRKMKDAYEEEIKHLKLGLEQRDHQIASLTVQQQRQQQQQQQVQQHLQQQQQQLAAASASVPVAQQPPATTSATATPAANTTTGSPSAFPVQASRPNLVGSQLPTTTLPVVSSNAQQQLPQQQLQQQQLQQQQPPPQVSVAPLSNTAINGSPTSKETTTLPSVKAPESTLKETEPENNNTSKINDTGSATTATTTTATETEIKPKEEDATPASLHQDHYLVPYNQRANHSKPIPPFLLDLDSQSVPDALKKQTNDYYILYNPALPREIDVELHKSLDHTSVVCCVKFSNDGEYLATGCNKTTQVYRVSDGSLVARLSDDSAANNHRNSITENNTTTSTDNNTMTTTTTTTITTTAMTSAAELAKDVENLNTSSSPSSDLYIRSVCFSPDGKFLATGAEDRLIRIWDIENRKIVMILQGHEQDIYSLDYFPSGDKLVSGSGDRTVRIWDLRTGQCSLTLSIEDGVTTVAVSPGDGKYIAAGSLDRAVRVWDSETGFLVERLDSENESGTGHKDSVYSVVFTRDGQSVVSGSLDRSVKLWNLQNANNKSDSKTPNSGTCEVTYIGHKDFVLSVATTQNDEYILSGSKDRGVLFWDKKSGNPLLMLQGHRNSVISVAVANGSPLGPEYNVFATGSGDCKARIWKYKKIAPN

Assays:
[1] = biological target: T1, GST-Whi5 (full-length) (S. cerevisiae) (UniProt Q12416); experiment: pull-down; GST fusions of full-length repressors immobilised on GSH sepharose, incubated with protein extracts from yeast transformants containing epitope-tagged Sin3 length variants; anti-HA blot (Fig. 2); only the target purified
T1 sequence: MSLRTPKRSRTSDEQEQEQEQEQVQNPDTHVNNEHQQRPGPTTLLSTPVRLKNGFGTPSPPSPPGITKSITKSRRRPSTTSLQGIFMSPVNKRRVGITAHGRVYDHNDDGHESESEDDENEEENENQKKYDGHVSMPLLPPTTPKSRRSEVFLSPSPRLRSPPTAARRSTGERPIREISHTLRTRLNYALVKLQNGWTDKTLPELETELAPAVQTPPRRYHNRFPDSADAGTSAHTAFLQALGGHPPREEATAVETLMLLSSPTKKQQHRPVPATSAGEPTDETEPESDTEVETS

[2] = biological target: T2, GST-Opi1 (full-length) (S. cerevisiae) (UniProt P21957); experiment: as above
T2 sequence: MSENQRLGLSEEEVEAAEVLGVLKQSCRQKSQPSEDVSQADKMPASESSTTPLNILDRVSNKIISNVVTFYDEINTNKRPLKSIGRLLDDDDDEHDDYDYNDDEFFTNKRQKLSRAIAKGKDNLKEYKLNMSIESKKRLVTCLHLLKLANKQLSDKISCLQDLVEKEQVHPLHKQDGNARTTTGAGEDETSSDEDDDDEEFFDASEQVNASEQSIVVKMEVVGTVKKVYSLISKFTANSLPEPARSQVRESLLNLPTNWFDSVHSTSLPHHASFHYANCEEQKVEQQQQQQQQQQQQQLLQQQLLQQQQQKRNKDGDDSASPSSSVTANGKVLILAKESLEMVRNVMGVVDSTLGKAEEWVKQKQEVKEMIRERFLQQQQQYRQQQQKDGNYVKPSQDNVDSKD

[3] = biological target: T3, GST-Rdr1 (full-length) (S. cerevisiae) (UniProt Q08904); experiment: as above
T3 sequence: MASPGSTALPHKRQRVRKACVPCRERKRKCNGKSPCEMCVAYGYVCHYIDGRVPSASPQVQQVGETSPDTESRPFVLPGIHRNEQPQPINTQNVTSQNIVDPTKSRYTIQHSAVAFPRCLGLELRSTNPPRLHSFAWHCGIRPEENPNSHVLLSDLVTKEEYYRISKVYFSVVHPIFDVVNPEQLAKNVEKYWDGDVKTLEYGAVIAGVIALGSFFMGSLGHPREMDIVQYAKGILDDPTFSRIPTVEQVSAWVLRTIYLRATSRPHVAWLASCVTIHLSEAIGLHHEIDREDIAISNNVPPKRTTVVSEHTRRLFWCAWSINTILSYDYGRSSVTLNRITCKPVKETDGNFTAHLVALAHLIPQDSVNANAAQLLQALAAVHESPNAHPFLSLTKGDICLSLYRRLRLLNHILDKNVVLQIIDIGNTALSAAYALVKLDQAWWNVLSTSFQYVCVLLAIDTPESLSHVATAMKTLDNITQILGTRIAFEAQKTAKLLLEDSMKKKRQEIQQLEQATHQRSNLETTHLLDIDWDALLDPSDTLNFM

[4] = biological target: T4, GST-Rox1 length variant aa 124-200 (S. cerevisiae); experiment: pull-down; GST fusions of repressor length variants used for binding studies with epitope-tagged corepressors (Supporting Online Fig. 1; its legend was not shown, source of the extracts and Sin3 construct not stated); only the target purified
T4 sequence: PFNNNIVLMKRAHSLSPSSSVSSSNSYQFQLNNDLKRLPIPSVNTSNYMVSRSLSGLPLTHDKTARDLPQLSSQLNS

[5] = biological target: T5, GST-Ure2 length variant aa 201-354 (S. cerevisiae) (UniProt P23202); experiment: pull-down; GST fusions of repressors (full-length or length variants) immobilised on GSH sepharose, incubated with bacterial total protein extracts containing HA-tagged Sin3, Cyc8 or Tup1 (or Tup1 length variants); elution with free GSH, anti-HA blot (Figs. 1, 3, 4, 5); only the target purified
T5 sequence: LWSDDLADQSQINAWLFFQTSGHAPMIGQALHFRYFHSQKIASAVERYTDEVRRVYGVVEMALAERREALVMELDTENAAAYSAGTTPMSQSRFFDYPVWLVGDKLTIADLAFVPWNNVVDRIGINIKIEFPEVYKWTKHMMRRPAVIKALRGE

[6] = biological target: T6, GST-Yox1 length variant aa 220-280 (S. cerevisiae) (UniProt P34161); experiment: as above
T6 sequence: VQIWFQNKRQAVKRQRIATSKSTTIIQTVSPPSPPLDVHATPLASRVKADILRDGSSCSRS

[7] = biological target: T7, GST-Ure2 (full-length) (S. cerevisiae) (UniProt P23202); experiment: as above
T7 sequence: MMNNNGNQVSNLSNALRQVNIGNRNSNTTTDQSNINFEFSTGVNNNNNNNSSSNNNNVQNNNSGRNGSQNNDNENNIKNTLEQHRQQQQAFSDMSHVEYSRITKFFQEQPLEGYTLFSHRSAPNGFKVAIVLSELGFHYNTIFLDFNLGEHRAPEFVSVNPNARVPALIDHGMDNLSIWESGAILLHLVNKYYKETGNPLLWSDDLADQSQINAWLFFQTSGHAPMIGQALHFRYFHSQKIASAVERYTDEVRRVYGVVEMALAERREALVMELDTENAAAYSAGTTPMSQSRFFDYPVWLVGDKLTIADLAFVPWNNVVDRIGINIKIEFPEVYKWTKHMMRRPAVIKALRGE

[8] = biological target: T8, GST-Dal80 length variant aa 151-200 (S. cerevisiae); experiment: as above
T8 sequence: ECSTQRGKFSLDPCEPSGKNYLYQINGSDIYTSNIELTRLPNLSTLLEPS

Row | Molecule | binding [1] | binding [2] | binding [3] | binding [4] | binding [5] | binding [6] | binding [7] | binding [8]
1 | epitope-tagged Sin3 length variant 301-600 (PAH2; pYJ91) (from UniProt P22579 301-600) (domain or fragment) | binds | binds | binds | – | – | – | – | –
2 | HA3-Tup1 (full-length; pFK76) (from UniProt P16649 1-713) | – | – | – | binds | no binding | binds | binds | binds
3 | HA3-Cyc8 (aa 1-398 with 10 TPR motifs; pFK77) (domain or fragment, UniProt P14922 1-398) MNPGGEQTIMEQPAQQQQQQQQQQQQQQQQAAVPQQPLDPLTQSTAETWLSIASLAETLGDGDRAAMAYDATLQFNPSSAKALTSLAHLYRSRDMFQRAAELYERALLVNPELSDVWATLGHCYLMLDDLQRAYNAYQQALYHLSNPNVPKLWHGIGILYDRYGSLDYAEEAFAKVLELDPHFEKANEIYFRLGIIYKHQGKWSQALECFRYILPQPPAPLQEWDIWFQLGSVLESMGEWQGAKEAYEHVLAQNQHHAKVLQQLGCLYGMSNVQFYDPQKALDYLLKSLEADPSDATTWYHLGRVHMIRTDYTAAYDAFQQAVNRDSRNPIFWCSIGVLYYQISQYRDALDAYTRAIRLNPYISEVWYDLGTLYETCNNQLSDALDAYKQAARLDVNN | – | – | – | binds | no binding | binds | binds | binds
4 | epitope-tagged Sin3 length variant 1-300 (PAH1; pCW83) (domain or fragment, UniProt P22579 1-300) MSQVWHNSNSQSNDVATSNDATGSNERNEKEPSLQGNKPGFVQQQQRITLPSLSALSTKEEDRRDSNGQQALTSHAAHILGYPPPHSNAMPSIATDSALKQPHEYHPRPKSSSSSPSINASLMNAGPAPLPTVGAASFSLSRFDNPLPIKAPVHTEEPKSYNGLQEEEKATQRPQDCKEVPAGVQPADAPDPSSNHADANDDNNNNENSHDEDADYRPLNVKDALSYLEQVKFQFSSRPDIYNLFLDIMKDFKSQAIDTPGVIERVSTLFRGYPILIQGFNTFLPQGYRIECSSNPDDPI | binds | binds | binds | – | – | – | – | –
